# Assay results published in PubChem BioAssay AID720708 (National Center for Advancing Translational Sciences (NCATS), 2013).
# Out of some 360,000 compounds screened, about 660 (0.18%) were called active. This list was built around the results that the source calls inconclusive (neither active nor inactive); the mix of calls is not that of the screen. Calls come from the whole dose curve; as a rule, active = well fitted inhibition curve with a large enough effect; inconclusive = small, poorly fitted or top-dose-only effect; inactive = no such curve, though single readings can be large or run the other way. Potencies of inconclusive entries are left out as doubtful fits.
# Biological target: Rap guanine nucleotide exchange factor 4 (Homo sapiens) (UniProt Q8WZA2)
# Experiment: qHTS for Antagonist of cAMP-regulated guanine nucleotide exchange factor 2 (EPAC2): primary screen; note: nearly all actives have a fitted effect of over 45% in size
# Details: EPAC2 GEF exchange of Rap1B-BODIPY-GDP, fluorescence; series mostly up to 114 µM
# Potency is the fitted concentration of half-maximal effect; tags give direction and shape of the fitted curve.
# UniProt Q8WZA2, sequence (Q8WZA2 whole entry, looked up): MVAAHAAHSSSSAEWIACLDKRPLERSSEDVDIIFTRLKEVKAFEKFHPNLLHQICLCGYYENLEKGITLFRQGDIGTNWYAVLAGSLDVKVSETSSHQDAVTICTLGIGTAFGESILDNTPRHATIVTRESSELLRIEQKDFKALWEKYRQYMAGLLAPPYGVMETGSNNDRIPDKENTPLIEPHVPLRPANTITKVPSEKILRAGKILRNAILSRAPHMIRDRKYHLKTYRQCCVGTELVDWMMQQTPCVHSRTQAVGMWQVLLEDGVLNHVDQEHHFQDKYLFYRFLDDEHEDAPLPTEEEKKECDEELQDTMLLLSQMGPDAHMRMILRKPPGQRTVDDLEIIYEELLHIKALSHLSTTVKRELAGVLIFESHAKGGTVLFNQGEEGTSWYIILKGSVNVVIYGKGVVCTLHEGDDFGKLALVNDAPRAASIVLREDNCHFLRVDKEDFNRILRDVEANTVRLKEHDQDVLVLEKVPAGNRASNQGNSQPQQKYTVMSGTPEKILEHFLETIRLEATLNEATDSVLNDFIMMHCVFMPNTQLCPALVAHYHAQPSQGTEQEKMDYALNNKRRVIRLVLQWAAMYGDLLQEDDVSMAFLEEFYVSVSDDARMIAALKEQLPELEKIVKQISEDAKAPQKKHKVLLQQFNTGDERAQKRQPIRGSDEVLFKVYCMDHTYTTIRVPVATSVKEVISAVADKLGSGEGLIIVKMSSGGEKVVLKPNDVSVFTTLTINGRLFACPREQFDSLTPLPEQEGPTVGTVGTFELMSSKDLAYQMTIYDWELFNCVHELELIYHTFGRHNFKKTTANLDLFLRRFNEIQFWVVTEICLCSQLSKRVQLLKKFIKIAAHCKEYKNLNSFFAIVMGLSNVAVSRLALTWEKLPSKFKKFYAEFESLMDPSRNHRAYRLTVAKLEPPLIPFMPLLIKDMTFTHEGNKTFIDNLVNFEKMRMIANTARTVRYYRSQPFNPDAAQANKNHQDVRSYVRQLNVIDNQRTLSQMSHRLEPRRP
row,Structure (SMILES),Potency
1,CC1(C(=O)NCc2ccc(C(F)(F)F)cc2)CCN1Cc1ccccc1OC(F)F (stereo not drawn),"inconclusive [inhibitor, full curve]"
2,Cc1cc(N=Nc2ccccc2C(=O)O)c(C)c(C)c1O,"inconclusive [inhibitor, partial curve]"
3,CC(C)C[C@@H](CN1CCC[C@H]1CN1C(=O)C(=O)NC[C@@H]1Cc1ccccc1)N1C[C@H](Cc2ccc(O)cc2)N(CC2CCCCCC2)C(=O)C1=O,"inconclusive [inhibitor, full curve, poor fit]"
4,CCC(=O)N1CCN(c2ccccc2NC(=O)COc2cc(C)ccc2C(C)C)CC1,"inconclusive [inhibitor, partial curve]"
5,COc1cc2c(cc1OC)C(=O)C(c1ccc3c(c1)OCO3)CC2 (stereo not drawn),inactive
6,CC1=C(C(=O)OCc2ccccc2)C(c2cccc(Cl)c2Cl)NC(=O)N1CCCCCC(=O)O (stereo not drawn),"inconclusive [inhibitor, partial curve]"
7,CCSc1nnc(NC(=O)CCC2CCCCC2)s1,"inconclusive [inhibitor, single point]"
8,CCOC(=O)C1=C(C)N=c2s/c(=C/c3ccc(OCC(=O)O)c(OC)c3)c(=O)n2C1c1ccc(Cl)cc1 (stereo not drawn),inactive
9,Cc1nn(CC(=O)c2ccc3c(c2)OCCO3)c(=O)c(C#N)c1C,"inconclusive [inhibitor, single point]"
10,O=c1oc2ccccc2n1Cc1ccccc1F,"inconclusive [inhibitor, partial curve]"
11,Cc1nc2cc(NC(=O)NCc3ccco3)ccc2n1C,inactive
12,CCCC[C@H]1COCCS(=O)(=O)N1Cc1ccc(Br)cc1,"inconclusive [inhibitor, partial curve]"
13,CC1CCc2c(sc3ncnc(SCC(=O)Nc4ccc(C(=O)O)cc4)c23)C1 (stereo not drawn),"inconclusive [inhibitor, partial curve]"
14,COC(=O)CC1C(=O)NCCN1C(=O)Nc1ccccc1 (stereo not drawn),inactive
15,O=C(NCCN1CCC(n2c(=O)[nH]c3ccccc32)CC1)c1c(F)cccc1F,"inconclusive [inhibitor, full curve, poor fit]"
16,CC1(Cc2ccc(Cl)c(Cl)c2)C(=O)Nc2c(Cl)ccc(Cl)c21 (stereo not drawn),"inconclusive [inhibitor, full curve, poor fit]"
17,COC(=O)C1=CN(c2ccc(C)cc2)C(N)=C(C#N)C1c1ccccc1F (stereo not drawn),"inconclusive [inhibitor, partial curve]"
18,Cc1ccc(OCCn2c(=O)oc3ccc(C)cc32)cc1,"inconclusive [inhibitor, partial curve]"
